{"source": "PubChem BioAssay AID743255", "about": "(National Center for Advancing Translational Sciences (NCATS), 2014)", "note": "Out of some 390,000 compounds screened, about 910 (0.23%) were called active. Not shown: some 5% with an inconclusive outcome. The call rests on the fitted dose curve; in most records, active means well fitted inhibition curve with a large enough effect; inconclusive means small, poorly fitted or top-dose-only effect; inactive means no such curve, though single readings can be large or run the other way. The list shows a part of the results, in another mix than the full data. On the % scale 0 is the no-effect control and ±100 the full control effect; potency means the concentration at half of the fitted maximal effect."}
{"biological_target": "Ubiquitin carboxyl-terminal hydrolase 1 (Homo sapiens) (UniProt O94782)", "sequence (O94782 whole entry, looked up)": "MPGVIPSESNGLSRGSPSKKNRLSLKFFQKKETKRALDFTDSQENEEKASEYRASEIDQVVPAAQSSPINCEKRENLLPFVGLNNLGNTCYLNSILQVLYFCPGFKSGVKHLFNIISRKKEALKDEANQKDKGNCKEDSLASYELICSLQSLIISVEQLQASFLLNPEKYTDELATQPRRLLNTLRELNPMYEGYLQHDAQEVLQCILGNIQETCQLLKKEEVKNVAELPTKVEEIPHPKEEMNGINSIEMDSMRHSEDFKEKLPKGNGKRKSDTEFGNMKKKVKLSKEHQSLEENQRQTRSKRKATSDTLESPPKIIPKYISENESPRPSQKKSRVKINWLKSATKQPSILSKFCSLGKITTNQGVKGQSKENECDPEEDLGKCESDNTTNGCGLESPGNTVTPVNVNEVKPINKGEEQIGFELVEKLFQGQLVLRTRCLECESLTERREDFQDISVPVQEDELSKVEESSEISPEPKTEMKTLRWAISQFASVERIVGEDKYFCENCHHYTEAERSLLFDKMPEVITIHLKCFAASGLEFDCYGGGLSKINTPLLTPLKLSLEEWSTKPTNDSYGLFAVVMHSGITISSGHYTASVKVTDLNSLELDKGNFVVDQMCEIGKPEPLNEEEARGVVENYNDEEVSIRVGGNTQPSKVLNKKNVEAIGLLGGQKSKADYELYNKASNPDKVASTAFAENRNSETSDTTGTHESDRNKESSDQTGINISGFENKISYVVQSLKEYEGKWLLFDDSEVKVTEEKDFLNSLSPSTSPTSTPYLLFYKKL", "assay": "Inhibitors of USP1/UAF1: Primary Screen; further: nearly all actives have a fitted effect of over 60% in size", "conditions": "recombinant USP1/UAF1, Ub-Rhodamine cleavage fluorescence; activity change, negative = inhibition: at 57.1 µM (top of the series)", "in_short": "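High-throughput fluorogenic screen: 1nM USP1/UAF1 complex, Ub-Rho substrate 150nM final, 50mM HEPES pH 7.8 with 0.5mM EDTA, 0.1 mg/ml BSA, 1mM TCEP and 0.01% Tween-20.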"}
{"smiles": "C[C@H](CO)N1C[C@H](C)[C@@H](CN(C)S(=O)(=O)c2ccc3ccccc3c2)OCc2cn(nn2)CCCC1=O", "activity change, negative = inhibition": "inactive: -12.6%"}
{"smiles": "Cc1cccc(C(=O)N=c2c(C#N)cc3c(=O)n4cccc(C)c4nc3n2Cc2ccco2)c1", "activity change, negative = inhibition": "inactive: -9.65%"}
{"smiles": "COc1ccc(N=C2SCC(=O)N2c2ccc(OC)cc2)cc1", "activity change, negative = inhibition": "inactive: 36.1%"}
{"smiles": "C[C@@H]1CCC[C@]2(O[C@H](CCO)C[C@H](O)[C@H]2O)O1", "activity change, negative = inhibition": "inactive: -2.24%"}
{"smiles": "C[C@H](NC(=O)c1[nH]cnc1C(=O)N[C@H](C)c1ccccc1)c1ccccc1", "activity change, negative = inhibition": "inactive: -23.8%"}
{"smiles": "Cc1cccc(S(=O)(=O)N(C)C[C@H]2OCc3cnnn3CCCC(=O)N([C@H](C)CO)C[C@H]2C)c1", "activity change, negative = inhibition": "inactive: 0.268%"}
{"smiles": "Cc1ccc(NC(=O)CN(C)S(=O)(=O)c2cccc3cccnc23)cc1F", "activity change, negative = inhibition": "inactive: -11.2%"}
{"smiles": "OCC[C@H]1C[C@H](O)[C@@H](O)[C@@]2(CCCO2)O1", "activity change, negative = inhibition": "inactive: -2.54%"}
{"smiles": "O=C(C[C@@H]1C/C=C/CC[C@H](Cc2ccc(F)cc2)C(=O)O[C@H](c2ccccc2)CNC1=O)NCCO", "activity change, negative = inhibition": "inactive: 26%"}
{"smiles": "C[C@H](CO)N1C[C@H](C)[C@H](CN(C)C(=O)Nc2cccc3ccccc23)OCc2cnnn2CCCC1=O", "activity change, negative = inhibition": "inactive: -6.41%"}
{"smiles": "CCN1CCc2c(sc(NC(=O)c3ccc(S(=O)(=O)N(CC)c4ccccc4)cc3)c2C(N)=O)C1", "Potency": "active: 28.2 µM"}
{"smiles": "CCc1ccc(C2CC(=O)Nc3c2c(=O)nc2c(C)cccn32)cc1", "note": "(centres undefined)", "activity change, negative = inhibition": "inactive: -11.1%"}
{"smiles": "CCCc1cc(-n2ccnc2)n2c(nc3ccccc32)c1C#N", "activity change, negative = inhibition": "inactive: 162%"}
{"smiles": "C=CCOC(=O)C1=C[C@H](c2ccc(C(F)(F)F)cc2)[C@@H](CCCO)[C@H](OCC)O1", "activity change, negative = inhibition": "inactive: -25.4%"}
{"smiles": "NC1=CC(=O)C(=O)c2cccnc21", "Potency": "active: 3.55 µM"}
{"smiles": "O=C1NCCOC(=O)[C@@H](Cc2ccc(F)cc2)C/C=C\\C[C@@H]1CC(=O)N(CCO)Cc1ccccc1", "activity change, negative = inhibition": "inactive: -13.1%"}
{"smiles": "COCCCC/C(=N\\OCCN)c1ccc(C(F)(F)F)cc1", "Potency": "inactive"}
{"smiles": "C[C@H]1CN([C@@H](C)CO)C(=O)c2cc(Br)cnc2O[C@@H]1CN(C)S(=O)(=O)c1ccccc1", "activity change, negative = inhibition": "inactive: -20.1%"}
{"smiles": "C[C@@H]1CN([C@H](C)CO)C(=O)CCCn2nncc2CO[C@H]1CN(C)C(=O)NC1CCCCC1", "activity change, negative = inhibition": "inactive: -22.3%"}
{"smiles": "COc1ccc(OC)c(/C=C(\\C#N)c2nc3ccccc3c(=O)[nH]2)c1", "activity change, negative = inhibition": "inactive: 147%"}
{"smiles": "C[C@H]1CN([C@@H](C)CO)C(=O)CCCn2cc(nn2)CO[C@@H]1CN(C)S(=O)(=O)c1ccc2c(c1)OCCCO2", "activity change, negative = inhibition": "inactive: -7.54%"}
{"smiles": "O=C(CSc1nc2c([nH]c3ccccc32)c(=O)n1-c1ccccc1)N1CCOCC1", "activity change, negative = inhibition": "inactive: -14.8%"}
{"smiles": "CCCCN(C)CC(O)Cn1cc(/C=C/C(=O)c2ccc(C)cc2)c2ccccc21", "note": "(centres undefined)", "activity change, negative = inhibition": "inactive: -21.7%"}
{"smiles": "N#Cc1c(-c2ccccc2)nc(SCC(=O)N2c3ccccc3Sc3ccccc32)[nH]c1=O", "Potency": "active: 31.6 µM"}
{"smiles": "CC(C)c1ccc(NC(=O)CCS(=O)(=O)c2cccc3nonc23)cc1", "activity change, negative = inhibition": "inactive: -8.7%"}
{"smiles": "C=CCN1C(=O)/C(=C/c2ccc(OC(C)=O)c(OCC)c2[N+](=O)[O-])SC1=S", "Potency": "active: 14.1 µM"}
{"smiles": "O=C1c2ccccc2-c2onc3ccc(NCc4ccco4)c1c23", "activity change, negative = inhibition": "inactive: 43.5%"}
{"smiles": "N#C/C(=C\\c1coc2ccc(O)cc2c1=O)C(=O)Nc1nc2ccccc2s1", "Potency": "active: 25.1 µM"}
{"smiles": "CCc1ccc(NC(=O)CCS(=O)(=O)c2ccc3c(c2)n(C)c(=O)c(=O)n3C)cc1", "activity change, negative = inhibition": "inactive: 44.3%"}
{"smiles": "CN(C(=O)CSc1cn(CC(=O)N2CCOCC2)c2ccccc12)c1ccccc1", "activity change, negative = inhibition": "inactive: -25.2%"}
{"smiles": "CCCCN(CC)CCNC(=O)Cn1cc2c(n1)-c1c(oc(C(=O)N3CCCC3)c1C)CC2", "activity change, negative = inhibition": "inactive: -26.8%"}
{"smiles": "CCc1cccc(-n2nnc(-c3nc(-c4ccccc4Cl)no3)c2N)c1", "activity change, negative = inhibition": "inactive: 32.3%"}
{"smiles": "O=C1N[C@@H](Cc2ccccc2)COC(=O)[C@@H](Cc2ccc(F)cc2)CC/C=C/C[C@@H]1CC(=O)N(CCO)Cc1ccccc1", "activity change, negative = inhibition": "inactive: -22.9%"}
{"smiles": "C=CC[C@H](CC(=O)NCCO)C(=O)N[C@H](COC(=O)[C@H](CC=C)CC(=O)OC(C)(C)C)Cc1c[nH]c2ccccc12", "activity change, negative = inhibition": "inactive: -9.68%"}
{"smiles": "O=C(O)c1ccc2c(c1)[C@@H]1C=CC[C@@H]1[C@H](c1ccccn1)N2", "Potency": "active: 31.6 µM"}
{"smiles": "Cc1ccc(-c2ccc(CCC(=O)O)n2-c2cccc(O)c2)cc1", "activity change, negative = inhibition": "inactive: -21.3%"}
{"smiles": "CCOc1cccc(CNc2ccc(O)cc2)c1OCc1ccc(Cl)cc1Cl", "Potency": "active: 31.6 µM"}
{"smiles": "C[C@@H]1CN([C@H](C)CO)C(=O)CCCn2cc(nn2)CO[C@H]1CN(C)C(=O)c1cc(-c2ccccc2)on1", "activity change, negative = inhibition": "inactive: 8.81%"}
{"smiles": "C[C@H](CO)N1C[C@H](C)[C@@H](CN(C)S(=O)(=O)c2ccccc2)Oc2ccc(NC(=O)Nc3ccc(C(F)(F)F)cc3)cc2C1=O", "activity change, negative = inhibition": "inactive: -26.8%"}
{"smiles": "COCCCn1c(=O)/c(=C\\c2ccccc2OC(C)C)s/c1=C(/C#N)C(=O)Nc1ccc(C(=O)O)cc1", "activity change, negative = inhibition": "inactive: -13.5%"}
{"smiles": "O=C(c1ccc2c(c1)CCN2S(=O)(=O)c1ccccc1)N1CCN(c2ccc(F)cc2)CC1", "activity change, negative = inhibition": "inactive: -17%"}
{"smiles": "Cc1ccc(C)n1Cc1ccc(C(=O)O)cc1", "Potency": "active: 25.1 µM"}
{"smiles": "CC[C@]1(c2ccccc2OC)C(=O)N(C(=O)OC)N1C(=O)OC", "activity change, negative = inhibition": "inactive: -20.7%"}
{"smiles": "Cn1cccc1/C=C1\\CCC/C(=C\\c2cccn2C)C1=O", "Potency": "active: 22.4 µM"}
{"smiles": "Cc1cccc(S(=O)(=O)N(C)C[C@H]2OCc3cnnn3CCCC(=O)N([C@@H](C)CO)C[C@H]2C)c1", "activity change, negative = inhibition": "inactive: -12.9%"}
{"smiles": "CCc1nn(CC(=O)N2CCN(c3cc(C)ccc3C)CC2)c(=O)c2cc3occc3n12", "activity change, negative = inhibition": "inactive: -0.668%"}
{"smiles": "COC(C/C=C\\[C@@H](O)COCc1ccccc1)OC", "activity change, negative = inhibition": "inactive: 7.75%"}
{"smiles": "C[C@@H]1CN([C@@H](C)CO)C(=O)CCCn2cc(nn2)CO[C@H]1CN(C)S(=O)(=O)c1ccc(-n2cccn2)cc1", "activity change, negative = inhibition": "inactive: -6.8%"}
{"smiles": "Cc1ccc(OC(=O)N(C)C[C@H]2OCc3cn(nn3)CCCC(=O)N([C@H](C)CO)C[C@@H]2C)cc1", "activity change, negative = inhibition": "inactive: -14.2%"}
{"smiles": "Cc1cccc(N(C)C(=O)c2cc(S(=O)(=O)N3CCCCC3)c[nH]2)c1", "activity change, negative = inhibition": "inactive: -13.3%"}
{"smiles": "CCCCN(C)CCCNC(=O)CN1C(=O)CSc2ccc(S(=O)(=O)N3CCOCC3)cc21", "activity change, negative = inhibition": "inactive: -2.87%"}
{"smiles": "C=CC[C@@H](CC(=O)N[C@@H](CO)Cc1ccccc1)C(=O)N[C@H](COC(=O)[C@@H](CC=C)CC(=O)OC(C)(C)C)Cc1c[nH]c2ccccc12", "activity change, negative = inhibition": "inactive: -13.7%"}
{"smiles": "O=C(NCc1ccccc1)C1=C[C@H](c2ccc(Br)cc2)C[C@H](OCCCCO)O1", "activity change, negative = inhibition": "inactive: -7.43%"}
{"smiles": "COc1ccc(C(=O)Nc2ccc3nc(N4CCCCC4)cc(C)c3c2)cc1OC", "activity change, negative = inhibition": "inactive: -16.3%"}
